Results are given in words; binding and its absence hold for the method and conditions named. Some binding calls cover weakened binding; strength is not graded here.

The values below come from publication PMC5065627.

This test addresses T1, LIGHT-REGULATED WD1 (LWD1), yeast two-hybrid bait (Arabidopsis thaliana) (UniProt Q9LPV9).
T1 sequence: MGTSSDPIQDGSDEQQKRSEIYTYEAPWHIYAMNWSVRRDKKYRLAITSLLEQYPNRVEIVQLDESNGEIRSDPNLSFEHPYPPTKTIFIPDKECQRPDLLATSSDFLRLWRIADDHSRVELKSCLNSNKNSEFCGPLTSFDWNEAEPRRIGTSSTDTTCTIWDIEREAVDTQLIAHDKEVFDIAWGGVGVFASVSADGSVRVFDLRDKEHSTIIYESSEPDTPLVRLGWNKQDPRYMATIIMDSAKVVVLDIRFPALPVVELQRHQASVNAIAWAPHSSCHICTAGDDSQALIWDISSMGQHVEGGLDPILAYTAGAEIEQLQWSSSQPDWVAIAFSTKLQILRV
Put plainly: two-hybrid; library screen: LWD1 as bait against a prey library of about 1,400 Arabidopsis full-length transcription factors; positive clones sequenced.

B1: TCP3, prey of the transcription factor library (protein, UniProt Q9MAH8 1-391)
chain: MAPDNDHFLDSPSPPLLEMRHHQSATENGGGCGEIVEVQGGHIVRSTGRKDRHSKVCTAKGPRDRRVRLSAPTAIQFYDVQDRLGFDRPSKAVDWLITKAKSAIDDLAQLPPWNPADTLRQHAAAAANAKPRKTKTLISPPPPQPEETEHHRIGEEEDNESSFLPASMDSDSIADTIKSFFPVASTQQSYHHQPPSRGNTQNQDLLRLSLQSFQNGPPFPNQTEPALFSGQSNNQLAFDSSTASWEQSHQSPEFGKIQRLVSWNNVGAAESAGSTGGFVFASPSSLHPVYSQSQLLSQRGPLQSINTPMIRAWFDPHHHHHHHQQSMTTDDLHHHHPYHIPPGIHQSAIPGIAFASSGEFSGFRIPARFQGEQEEHGGDNKPSSASSDSRH
For B1, the binding result is “binds”.

B2: TCP19, prey of the transcription factor library (protein, UniProt Q9LT89 1-293)
chain: MESNHEGNAIQVIDQVTTMTHLSDPNPKTKPGMMLMKQEDGYLQPVKTKPAPKRPTSKDRHTKVEGRGRRIRMPAGCAARVFQLTRELGHKSDGETIRWLLERAEPAIIEATGTGTVPAIAVSVNGTLKIPTSSPVLNDGGRDGDGDLIKKRRKRNCTSDFVDVNDSCHSSVTSGLAPITASNYGVNILNVNTQGFVPFWPMGMGTAFVTGGPDQMGQMWAIPTVATAPFLNVGARPVSSYVSNASDAEAEMETSGGGTTQPLRDFSLEIYDKRELQFLGGSGNSSPSSCHET
Consider B2, for which the binding result is “binds”.
